Laboratory results from PubChem BioAssay AID924 (National Center for Advancing Translational Sciences (NCATS), 2007).
About 1,200 (0.92%) of roughly 130,000 compounds were called active. The inconclusive results got no clear call from the source; some entries with a clear call stand among them for comparison. Calls come from the whole dose curve; as a rule, active = well fitted cell-killing curve with a large enough effect; inconclusive = small, poorly fitted or top-dose-only effect; inactive = no such curve, though single readings can be large or run the other way. Potencies of inconclusive entries are doubtful fits and often do not repeat.

Assay: qHTS Screen for Compounds that Selectively Target Cancer Cells with p53 Mutations: Cytotoxicity of p53ts Cells at the Permissive Temperature; note: nearly all actives have a fitted effect of over 55% in size;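 for activity change, negative = cytotoxicity: 0% = DMSO and -100% = full killing by reference compound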
Conditions: H1299-p53A138V at 32C, ATP luminescence viability, 24 h; activity change, negative = cytotoxicity: at 46.1 µM (top of the series)
Procedure, shortened: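 Cells: H1299 p53ts (A138V), 600/well, pre-incubated 16–30 h at 37C. Cpd up to 46 uM, 24 h, 32C. Readout: ATPlite luminescence, 20 min RT. Normalization: DMSO vs tamoxifen 100 uM. AC50 by Hill equation.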
Potency is the fitted concentration of half-maximal effect; tags give direction and shape of the fitted curve.

Row | Compound | Potency | activity change, negative = cytotoxicity
1 | COc1ccc(OC)c(NC(=O)c2nc(S(=O)(=O)Cc3ccc(F)cc3)ncc2Cl)c1 | inconclusive: 25.1 µM [cytotoxic, single point] | 
2 | O=C(c1ccc2c(c1)OCO2)N1CCc2ccccc2C1 | inconclusive: 10 µM [cytotoxic, partial curve] | 
3 | COC(=O)c1cc(-c2ccc3ccccc3c2)[nH]c(=O)c1C#N |  | inactive: -17.1% [at 9.22 µM]
4 | Cc1nn(-c2ccccc2)c(Cl)c1/C=C/C(=O)c1ccc(O)cc1 | inconclusive: 11.2 µM [cytotoxic, partial curve] | 
5 | CCN(CC)S(=O)(=O)c1cc(C(=O)Nc2ccc(Cl)cn2)ccc1C | inconclusive: 12.6 µM [cytotoxic, partial curve] | 
6 | Cc1ccc2oc(-c3ccc(C)c(NC(=O)/C=C/c4ccco4)c3)nc2c1 |  | inactive: -19.8%
7 | CCOC(=O)Cn1nc(-c2ccc(C)cc2)ccc1=O |  | inactive: 1.53%
8 | Cc1nn2c(-c3ccccc3)cc(-c3ccccc3)nc2c1-c1ccc(Cl)cc1 |  | inactive: -7.56%
9 | S=C(Nc1ccccn1)c1ccccn1 | inconclusive: 15.8 µM [cytotoxic, partial curve] | 
10 | CC(=O)O[C@H]1C[C@H]2CC[C@@H]3[C@@H](CC[C@]4(C)[C@H](OC(C)=O)[C@H]([N+]5(C)CCCCC5)C[C@@H]34)[C@]2(C)C[C@H]1[N+]1(C)CCCCC1 |  | inactive: -2.65% [at 20.6 µM]
11 | COC(=O)CSc1cc(SCC(=O)OC)c(C#N)c(SCC(=O)OC)c1 | inconclusive: 31.6 µM [cytotoxic, single point] | 
12 | O=C1CC(O)(C(F)(F)F)Oc2c1ccc1ccccc21 (centres undefined) | inconclusive: 31.6 µM [cytotoxic, single point] | 
13 | Cc1c(Cl)cccc1NC(=O)C(=O)NCCc1csc2nc(-c3ccccc3F)nn12 | inconclusive: 31.6 µM [cytotoxic, single point] | 
14 | Nc1ncc(S(=O)(=O)NCc2ccccc2)cn1 |  | inactive: 6.38%
15 | COc1ccc(-c2nn(-c3ccccc3)cc2/C=N/n2cnnc2)cc1OC |  | inactive: -2.73%
16 | Cn1[nH]c(=O)c2ccccc2c1=O | inconclusive: 0.0501 µM [cytotoxic, full curve, poor fit] | 
17 | c1ccc(-c2noc(-c3cccc4ccccc34)n2)nc1 | inconclusive: 10 µM [cytotoxic, partial curve] | 
18 | COCn1c(COc2ccc3ccccc3c2)nc2ccccc21 | inconclusive: 31.6 µM [cytotoxic, single point] | 
19 | COc1ccc(OC)c(S(=O)(=O)Nc2ccc(O)c3ccccc23)c1 | inconclusive: 20 µM [cytotoxic, single point] | 
20 | CCC(C)S(=O)(=O)c1oc(-c2cccs2)nc1S(=O)(=O)c1ccccc1 (centres undefined) | active: 6.31 µM | 
21 | CCOc1ccc(CCNC(=O)Cn2c(-c3cccs3)cc3ccccc32)cc1 |  | inactive: -8.62%
22 | O=C(Nc1cc(Cl)cc(Cl)c1)c1cc(S(=O)(=O)NC2CCCC2)ccc1F | inconclusive: 35.5 µM [cytotoxic, single point] | 
23 | Cc1cc(C)c(C#N)c(SCC(=O)Nc2ccccc2C(N)=O)n1 | active: 12.6 µM | 

Row | Compound | Potency | activity change, negative = cytotoxicity
24 | O=C(NC1CC1)c1ccc(Cn2c(SCc3ccc(F)cc3)nc3cccnc32)cc1 | inconclusive: 4.47 µM [cytotoxic, partial curve] | 
25 | O=c1c2c3c(sc2ncn1-n1cccc1)CCCCC3 | inconclusive: 11.2 µM [cytotoxic, partial curve, poor fit] | 
26 | COc1ccc(CCNC(=O)CCc2cn(Cc3ccc(F)cc3)c3ccccc23)cc1OC |  | inactive: 10.8%
27 | Cc1ccc(NC(=O)c2sc3nc(-c4ccncc4)ccc3c2N)cc1 | inconclusive: 15.8 µM [cytotoxic, single point] | 
28 | O=C1C(Cl)=C(NC2CCc3ccccc32)C(=O)c2ncccc21 (centres undefined) | active: 2.51 µM | 
29 | Cn1c(NC(=O)c2cccnc2)nc2ccccc21 | inconclusive: 12.6 µM [cytotoxic, partial curve] | 
30 | Cc1ccc2occ(CC(=O)Nc3ccc(Cl)c(C(F)(F)F)c3)c2c1 | inconclusive: 31.6 µM [cytotoxic, single point] | 
31 | Cc1cc(C)c(-c2cc([C@H](C)O/N=C3/[C@H]4OC4[C@@H](O)[C@H]4[C@H]3CCn3c(=O)n(-c5ccccc5)c(=O)n34)on2)c(C)c1 (some centres undefined) | inconclusive: 5.01 µM [cytotoxic, single point] | 
32 | C=C(C)COc1ccc2c(c1)CCC1C2CC[C@]2(C)C(=O)/C(=N/O)CC12 (some centres undefined) | inconclusive: 3.98 µM [cytotoxic, single point] | 
33 | CCc1ccc(-n2nc(CO)c(C(=O)NCc3cccnc3)n2)cc1 | inconclusive: 3.16 µM [cytotoxic, full curve, poor fit] | 
34 | Cc1cc(C)c2c(n1)nn1c(N3CCN(c4ccccn4)CC3)cc(C)nc21 |  | inactive: 5.83%
35 | Cc1ccc(-c2onc(C)c2C)cc1S(=O)(=O)Nc1cccc(Cl)c1C |  | inactive: 32.6%
36 | CCOC(=O)N1CCN(C(=O)c2ccc3c(c2)N(Cc2cccc(Cl)c2)C(=O)c2ccccc2S3=O)CC1 (centres undefined) | inconclusive: 0.0316 µM [cytotoxic, full curve, poor fit] | 
37 | CCCC[C@@H]1C[C@H]1[C@@H](NP(=O)(c1ccccc1)c1ccccc1)c1ccccc1OC | inconclusive: 31.6 µM [cytotoxic, single point] | 
38 | CC(C)(C)C(=O)Nc1ccc2nc(SCC(=O)N3CCc4ccccc43)sc2c1 |  | inactive: -17.3%
39 | Cc1ccc2nc(-c3ccc4c(c3)OCCO4)cc(C(=O)O)c2c1 | active: 15.8 µM | 
40 | COc1cccc(C(=O)Nc2cccc(C(=O)OCc3cc(=O)n4c5c(sc4n3)CCCC5)c2)c1 |  | inactive: -6.79%
41 | O=c1/c(=C/c2ccccn2)sc2nc3ccccc3n12 | active: 10 µM | 
42 | CCCc1nc(SCC(=O)N2CCC(Cc3ccccc3)CC2)c2c(=O)n(C)c(=O)n(C)c2n1 | inconclusive: 31.6 µM [cytotoxic, single point] | 
43 | CCN(CC)C(=O)c1sc(N)c(C(=O)OC(C)C)c1C | inconclusive: 0.01 µM [cytotoxic, full curve] | 
44 | NC(=O)COc1ccc(NC(=O)OCc2ccccc2)cc1 | inconclusive: 15.8 µM [cytotoxic, partial curve] | 
45 | CCc1ccc(C2C(C#N)=C(N)C(C#N)(C#N)C3=CCC(C(C)(C)C)CC32)cc1 (centres undefined) | inconclusive: 35.5 µM [cytotoxic, single point] | 
46 | CN(C)c1ccc(-c2cc(NCc3cccnc3)ncn2)cc1 | inconclusive: 10 µM [cytotoxic, partial curve] | 

Row | Compound | Potency | activity change, negative = cytotoxicity
47 | CN(C)c1cc(-c2cccc(NS(C)(=O)=O)c2)ncn1 | inconclusive: 12.6 µM [cytotoxic, partial curve] | 
48 | Cc1ccc(NC(=O)Cn2c(=O)n(-c3ccccc3)c(=O)c3ccc(C(=O)NCc4ccc5c(c4)OCO5)cc32)c(C)c1 | inconclusive: 15.8 µM [cytotoxic, single point] | 
49 | Cc1ccccc1OCc1nc(-c2ccc(NC(=O)c3ccc4c(c3)OCO4)cc2)no1 | inconclusive: 25.1 µM [cytotoxic, partial curve] | 
50 | CCOc1ccc(CCNC(=O)c2cc3c(s2)-c2ccccc2OC3)cc1OCC |  | inactive: 2.36%
51 | O=c1c(-c2cccs2)nc2cnc(N3CCNCC3)nc2n1Cc1cccs1 | inconclusive: 31.6 µM [cytotoxic, single point] | 
52 | Cc1ccc(C2=CC(c3ccccc3F)n3c(nc4ccccc43)N2)cc1C (centres undefined) | inconclusive: 20 µM [cytotoxic, single point] | 
53 | Cc1noc(C)c1C(=O)N1CCC2(CCN(Cc3ccccc3)CC2)CC1 |  | inactive: -4.38%
54 | CCCCOc1ccc(CN2C(=O)C(=O)c3cc(Br)cc(C)c32)cc1OC | inconclusive: 31.6 µM [cytotoxic, single point] | 
55 | CCn1cnc2cc(NCc3nc4ccccc4n3C)ccc21 | active: 15.8 µM | 
56 | CCCCCSc1nc2sc3c(c2c(=O)n1-c1ccccc1)CCN(C(C)=O)C3 | inconclusive: 31.6 µM [cytotoxic, single point] | 
57 | CCOC(=O)Nc1ccc2c(c1)N(C(=O)CCN(C)C)c1ccccc1S2 | inconclusive: 31.6 µM [cytotoxic, single point] | 
58 | CCOC(=O)c1ccc(NC(=O)N2CCOc3ccccc32)cc1 |  | inactive: -13.8%
59 | COCCCNC(=O)C(=O)Nc1c2c(nn1-c1cccc(Cl)c1)CSC2 |  | inactive: 2.2%
60 | Cc1cc2oc(C(=O)N(Cc3ccccc3F)C3CCS(=O)(=O)C3)c(C)c2cc1Cl (centres undefined) |  | inactive: 11.5%
61 | COc1nc(C)ccc1-c1noc(-c2ccccn2)n1 | active: 10 µM | 
62 | CCOc1ccc(-c2cc(C(=O)N3CCN(S(=O)(=O)c4cc(Cl)ccc4OC)CC3)[nH]n2)cc1 |  | inactive: 1.32%
63 | CCC(CC)C(=O)N(c1ccc(F)cc1)C1C=CS(=O)(=O)C1 (centres undefined) | inconclusive: 0.0251 µM [cytotoxic, full curve, poor fit] | 
64 | CC[C@@H](C)[C@H](NC(=O)OC(C)(C)C)c1nnc(S(=O)(=O)Cc2cc(C)ccc2C)o1 | inconclusive: 31.6 µM [cytotoxic, single point] | 
65 | CC(=O)Nc1cc(OC(C)=O)c2nonc2c1OC(C)=O | active: 3.16 µM | 
66 | Cc1nc2cc(NC(=O)CCS(=O)(=O)c3ccccc3)ccc2s1 | inconclusive: 17.8 µM [cytotoxic, partial curve, poor fit] | 
67 | Cc1oc2ccc(O)c(CN(C)Cc3ccccc3)c2c1C(=O)Nc1ccccc1 | inconclusive: 35.5 µM [cytotoxic, single point] | 
68 | O=C(Nc1ccc2nc[nH]c2c1)c1ccco1 | inconclusive: 12.6 µM [cytotoxic, single point] | 
69 | O=C(CCS(=O)(=O)c1nc(-c2cccs2)cc(C(F)(F)F)n1)Nc1ccc(OC(F)(F)F)cc1 | inconclusive: 20 µM [cytotoxic, partial curve] | 
